Measurements reported in the supplement of paper PMC4604168 (melanoma cell lines).
The other results are listed elsewhere or left out. Single values are uncertain, as repeats are few or missing.

Legend:
Experiment in all cases: cell count relative to DMSO control; melanoma cells; higher = more viable cells
Settings in all cases: library dose: low library concentration; 72 h
MZ2-MEL = tested on: MZ2-MEL
MeWo = tested on: MeWo
RPMI7951 = tested on: RPMI7951
RVH-421 = tested on: RVH-421
SkMel28 = tested on: SkMel28
SkMel2 = tested on: SkMel2
SkMel30 = tested on: SkMel30
SkMel5 = tested on: SkMel5
UACC257 = tested on: UACC257
UACC62 = tested on: UACC62
WM115 = tested on: WM115
WM1716 = tested on: WM1716
WM1745 = tested on: WM1745
WM3526 = tested on: WM3526
WM3619 = tested on: WM3619
WM451Lu = tested on: WM451Lu
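Also: cell number obtained by counting DAPI-stained nuclei in high-throughput microscope images with image analysis software, screen run in 1,536-well plates.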

`OCc1c[nH]c2ccccc12` [Indole-3-carbinol] + O=C(Oc1ccc([N+](=O)[O-])cc1)N1CCC(C(O)(c2ccc3c(c2)OCO3)c2ccc3c(c2)OCO3)CC1 [JZL184] (first compound 0.8 µM, partner dose 1 µM) showed a cell count (MZ2-MEL) of 93.4%, a cell count (MeWo) of 120% and a cell count (RPMI7951) of 112%. It also gave a cell count (RVH-421) of 94.4%, a cell count (SkMel28) of 86.9% and a cell count (SkMel2) of 102%. The cell count (SkMel30) was 104%, the cell count (SkMel5) was 94.5% and the cell count (UACC257) was 75.9%. The cell count (UACC62) was 83.6%, the cell count (WM115) was 104% and the cell count (WM1716) was 97.8%. The cell count (WM1745) was 102%, the cell count (WM3526) was 89.6% and the cell count (WM3619) was 118%. The cell count (WM451Lu) was 101%.
For `Cc1ccc(Nc2nccc(N(C)c3ccc4c(C)n(C)nc4c3)n2)cc1S(N)(=O)=O` [Pazopanib] + C/C(O)=C(\C#N)C(=O)Nc1cc(Br)ccc1Br [LFM-A13] (first compound 0.4 µM, partner dose 2 µM), the cell count (MZ2-MEL) was 80%, the cell count (MeWo) was 111% and the cell count (RPMI7951) was 72.8%. It also gave a cell count (RVH-421) of 103%, a cell count (SkMel28) of 85.1% and a cell count (SkMel2) of 100%. It also gave a cell count (SkMel30) of 82.4%, a cell count (SkMel5) of 114% and a cell count (UACC257) of 80.5%. For the same molecule, the cell count (UACC62) was 94.2%, the cell count (WM115) was 99.3% and the cell count (WM1716) was 77.1%. The cell count (WM1745) was 101%, the cell count (WM3526) was 105% and the cell count (WM3619) was 91.7%. For the same molecule, the cell count (WM451Lu) was 111%.
`CS(=O)(=O)c1ccc(C(=O)Nc2ccc(Cl)c(-c3ccccn3)c2)c(Cl)c1` [vismodegib] + C/C(O)=C(\C#N)C(=O)Nc1cc(Br)ccc1Br [LFM-A13] (first compound 1 µM, partner dose 2 µM) showed a cell count (MZ2-MEL) of 107%, a cell count (MeWo) of 104% and a cell count (RPMI7951) of 82.9%. It also gave a cell count (RVH-421) of 104%, a cell count (SkMel28) of 135% and a cell count (SkMel2) of 101%. The cell count (SkMel30) was 85.8%, the cell count (SkMel5) was 111% and the cell count (UACC257) was 90.2%. For the same molecule, the cell count (UACC62) was 98.7%, the cell count (WM115) was 107% and the cell count (WM1716) was 132%. The cell count (WM1745) was 107%, the cell count (WM3526) was 84.9% and the cell count (WM3619) was 138%. The cell count (WM451Lu) was 77.6%.
In the case of `O=c1[nH]nc(Sc2ncc([N+](=O)[O-])s2)n1-c1ccc2c(c1)OCCO2` + O=C(Oc1ccc([N+](=O)[O-])cc1)N1CCC(C(O)(c2ccc3c(c2)OCO3)c2ccc3c(c2)OCO3)CC1 [JZL184] (first compound 0.2 µM, partner dose 1 µM), the cell count (MZ2-MEL) is reported as 97.6%, the cell count (MeWo) is reported as 99.1% and the cell count (RPMI7951) is reported as 103%. The cell count (RVH-421) was 112%, the cell count (SkMel28) was 99.1% and the cell count (SkMel2) was 90.9%. For the same molecule, the cell count (SkMel30) was 91.7%, the cell count (SkMel5) was 98.9% and the cell count (UACC257) was 106%. For the same molecule, the cell count (UACC62) was 97.4%, the cell count (WM115) was 94% and the cell count (WM1716) was 97.9%. For the same molecule, the cell count (WM1745) was 92.9%, the cell count (WM3526) was 102% and the cell count (WM3619) was 107%. The cell count (WM451Lu) was 156%.
In the case of `CNC(=O)c1cc(Oc2ccc(NC(=O)Nc3ccc(Cl)c(C(F)(F)F)c3)cc2)ccn1` [sorafenib] + O=C(Oc1ccc([N+](=O)[O-])cc1)N1CCC(C(O)(c2ccc3c(c2)OCO3)c2ccc3c(c2)OCO3)CC1 [JZL184] (first compound 0.4 µM, partner dose 1 µM), the cell count (MZ2-MEL) is reported as 89.8%, the cell count (MeWo) is reported as 102% and the cell count (RPMI7951) is reported as 91.4%. The cell count (RVH-421) was 95.1%, the cell count (SkMel28) was 103% and the cell count (SkMel2) was 99.6%. The cell count (SkMel30) was 108%, the cell count (SkMel5) was 81.7% and the cell count (UACC257) was 104%. For the same molecule, the cell count (UACC62) was 94.4%, the cell count (WM115) was 98.6% and the cell count (WM1716) was 91.2%. For the same molecule, the cell count (WM1745) was 97.3%, the cell count (WM3526) was 87.6% and the cell count (WM3619) was 123%. For the same molecule, the cell count (WM451Lu) was 123%.
`COc1ccc(C2=N[C@@H](c3ccc(Cl)cc3)[C@@H](c3ccc(Cl)cc3)N2C(=O)N2CCNC(=O)C2)c(OC(C)C)c1` [Nutlin-3] + O=C(Oc1ccc([N+](=O)[O-])cc1)N1CCC(C(O)(c2ccc3c(c2)OCO3)c2ccc3c(c2)OCO3)CC1 [JZL184] (first compound 0.1 µM, partner dose 1 µM) was tested, and the cell count (MZ2-MEL) was 94.7%, the cell count (MeWo) was 112% and the cell count (RPMI7951) was 95.8%. It also gave a cell count (RVH-421) of 81.9%, a cell count (SkMel28) of 87.2% and a cell count (SkMel2) of 86.5%. It also gave a cell count (SkMel30) of 79.2%, a cell count (SkMel5) of 81.3% and a cell count (UACC257) of 88.8%. The cell count (UACC62) was 85.3%, the cell count (WM115) was 78.6% and the cell count (WM1716) was 70.6%. For the same molecule, the cell count (WM1745) was 97.5%, the cell count (WM3526) was 87.1% and the cell count (WM3619) was 86.3%. The cell count (WM451Lu) was 102%.
Molecule `C[C@@H](Oc1cc(-c2cnn(C3CCNCC3)c2)cnc1N)c1c(Cl)ccc(F)c1Cl` [Crizotinib] + Cc1cc(SCc2sc(-c3ccc(C(F)(F)F)c(F)c3)nc2C)ccc1OCC(=O)O [GW0742] (first compound 0.2 µM, partner dose 2 µM) has a cell count (MZ2-MEL) of 100%, a cell count (MeWo) of 101% and a cell count (RPMI7951) of 105%. It also gave a cell count (RVH-421) of 139%, a cell count (SkMel28) of 68.8% and a cell count (SkMel2) of 103%. For the same molecule, the cell count (SkMel30) was 84.3%, the cell count (SkMel5) was 93.6% and the cell count (UACC257) was 89.6%. For the same molecule, the cell count (UACC62) was 88.5%, the cell count (WM115) was 101% and the cell count (WM1716) was 118%. The cell count (WM1745) was 107%, the cell count (WM3526) was 108% and the cell count (WM3619) was 100%. For the same molecule, the cell count (WM451Lu) was 118%.
With `CCCCCCCCCCCCCCCCCCOP(=O)([O-])OC1CC[N+](C)(C)CC1` [Perifosine] + O=C(Oc1ccc([N+](=O)[O-])cc1)N1CCC(C(O)(c2ccc3c(c2)OCO3)c2ccc3c(c2)OCO3)CC1 [JZL184] (first compound 0.4 µM, partner dose 1 µM) the cell count (MZ2-MEL) was 102%, the cell count (MeWo) was 96.9% and the cell count (RPMI7951) was 86.9%. For the same molecule, the cell count (RVH-421) was 103%, the cell count (SkMel28) was 82.3% and the cell count (SkMel2) was 91.8%. The cell count (SkMel30) was 86.8%, the cell count (SkMel5) was 101% and the cell count (UACC257) was 108%. The cell count (UACC62) was 91.2%, the cell count (WM115) was 101% and the cell count (WM1716) was 96.4%. The cell count (WM1745) was 120%, the cell count (WM3526) was 92% and the cell count (WM3619) was 137%. The cell count (WM451Lu) was 105%.
`N#CC[C@H](C1CCCC1)n1cc(-c2ncnc3[nH]ccc23)cn1` [ruxolitinib] + Cc1cc(SCc2sc(-c3ccc(C(F)(F)F)c(F)c3)nc2C)ccc1OCC(=O)O [GW0742] (first compound 1 µM, partner dose 2 µM) was tested, and the cell count (MZ2-MEL) was 103%, the cell count (MeWo) was 98.8% and the cell count (RPMI7951) was 101%. For the same molecule, the cell count (RVH-421) was 90%, the cell count (SkMel28) was 112% and the cell count (SkMel2) was 103%. The cell count (SkMel30) was 112%, the cell count (SkMel5) was 103% and the cell count (UACC257) was 86.6%. For the same molecule, the cell count (UACC62) was 113%, the cell count (WM115) was 105% and the cell count (WM1716) was 109%. The cell count (WM1745) was 100%, the cell count (WM3526) was 118% and the cell count (WM3619) was 91.8%. For the same molecule, the cell count (WM451Lu) was 108%.
